Key:
Assay type in all cases: in vivo
Alternaia brassicicola = assay: Test Example C: Alternaria sooty spot on cabbage; conditions: 250 ppm spray, preventive; control value class
Text: [Test Example C] Alternaria Sooty Spot on Cabbage
Seeds of a test plant (cabbage variety: Shikidori) were planted followed by cultivating until the cotyledons extended.

[1] = system: Blumeria graminis f sp. hordei; assay: Test Example D: Powdery mildew on barley; conditions: 250 ppm spray, preventive; control value class
Text: [Test Example D] Powdery Mildew on Barley
After the sprayed dilutions were dried, conidia of Blumeria graminis f sp. hordei were inoculated to the plants by shaking off.

Botrytis cinerea = assay: Test Example B: Gray mold on tomato; conditions: 250 ppm spray, preventive; control value class
Text: [Test Example B] Gray Mold on Tomato
Seeds of a test plant (tomato variety: Oogata Fukuju) were planted followed by cultivating until three to five first leaves (true leaves) appeared.

Puccinia recondita = assay: Test Example E: Brown rust on wheat; conditions: 250 ppm spray, preventive; control value class
Text: [Test Example E] Brown Rust on Wheat

Plasmopara viticola = assay: Test Example G: Downy mildew on vine; conditions: 250 ppm spray (2.5 ml/pot), preventive; 7-10 days after inoculation; control value class
Text: [Test Example G] Downy Mildew on Vine
Seeds of a test plant (grape variety: Neomuscat) were planted followed by cultivating until three to four first leaves appeared. […] After the sprayed dilutions were dried, a zoosporangia suspension (1-2×10^4 zoosporangia/ml) of Plasmopara viticola was inoculated to the plants by spraying.

## Cn1c(-c2c(F)cccc2F)c(-c2cc(OCC(F)F)ccc2Cl)ccc1=O [Compound 278]
Alternaia brassicicola
  Test C control value (Alternaria sooty spot on cabbage): H (H shows more than 50% of control values)
[1]
  Test D control value (powdery mildew on barley): H (H shows more than 50% of control values)
Botrytis cinerea
  Test B control value (gray mold on tomato): H (H shows more than 50% of control values)
Puccinia recondita
  Test E control value (brown rust on wheat): H (H shows more than 50% of control values)
Plasmopara viticola
  Test G control value (downy mildew on vine): H (H shows more than 50% of control values)

## Cn1c(-c2c(F)cccc2F)c(-c2ccc(Cl)cc2)ccc1=O [Compound 280]
Alternaia brassicicola
  Test C control value (Alternaria sooty spot on cabbage): H (H shows more than 50% of control values)
[1]
  Test D control value (powdery mildew on barley): H (H shows more than 50% of control values)
Botrytis cinerea
  Test B control value (gray mold on tomato): H (H shows more than 50% of control values)
Puccinia recondita
  Test E control value (brown rust on wheat): H (H shows more than 50% of control values)
Plasmopara viticola
  Test G control value (downy mildew on vine): H (H shows more than 50% of control values)

## CCCOc1cc(F)c(-c2c(-c3cc(OC)cc(OC)c3Cl)ccc(=O)n2C)c(F)c1 [Compound 281]
Alternaia brassicicola
  Test C control value (Alternaria sooty spot on cabbage): H (H shows more than 50% of control values)
[1]
  Test D control value (powdery mildew on barley): H (H shows more than 50% of control values)
Botrytis cinerea
  Test B control value (gray mold on tomato): H (H shows more than 50% of control values)
Puccinia recondita
  Test E control value (brown rust on wheat): H (H shows more than 50% of control values)
Plasmopara viticola
  Test G control value (downy mildew on vine): H (H shows more than 50% of control values)

## CCCCOc1cc(F)c(-c2c(-c3cc(OC)cc(OC)c3Cl)ccc(=O)n2C)c(F)c1 [Compound 282]
Alternaia brassicicola
  Test C control value (Alternaria sooty spot on cabbage): H (H shows more than 50% of control values)
[1]
  Test D control value (powdery mildew on barley): L (L shows 50% or less of control values)
Botrytis cinerea
  Test B control value (gray mold on tomato): H (H shows more than 50% of control values)
Puccinia recondita
  Test E control value (brown rust on wheat): H (H shows more than 50% of control values)
Plasmopara viticola
  Test G control value (downy mildew on vine): L (L shows 50% or less of control values)

## CCN1C(=O)CCC(c2cccc(C(F)(F)F)c2)=C1c1c(F)cccc1F [Compound 283]
Alternaia brassicicola
  Test C control value (Alternaria sooty spot on cabbage): L (L shows 50% or less of control values)
[1]
  Test D control value (powdery mildew on barley): H (H shows more than 50% of control values)
Botrytis cinerea
  Test B control value (gray mold on tomato): H (H shows more than 50% of control values)
Puccinia recondita
  Test E control value (brown rust on wheat): L (L shows 50% or less of control values)
Plasmopara viticola
  Test G control value (downy mildew on vine): L (L shows 50% or less of control values)

## CCn1c(-c2c(F)cccc2F)c(-c2cccc(C(F)(F)F)c2)ccc1=O [Compound 284]
Alternaia brassicicola
  Test C control value (Alternaria sooty spot on cabbage): L (L shows 50% or less of control values)
[1]
  Test D control value (powdery mildew on barley): H (H shows more than 50% of control values)
Botrytis cinerea
  Test B control value (gray mold on tomato): H (H shows more than 50% of control values)
Puccinia recondita
  Test E control value (brown rust on wheat): L (L shows 50% or less of control values)
Plasmopara viticola
  Test G control value (downy mildew on vine): L (L shows 50% or less of control values)

## Cn1c(-c2c(F)cccc2F)c(-c2ccc(Cl)cc2)cc(Cl)c1=O [Compound 285]
Alternaia brassicicola
  Test C control value (Alternaria sooty spot on cabbage): H (H shows more than 50% of control values)
[1]
  Test D control value (powdery mildew on barley): H (H shows more than 50% of control values)
Botrytis cinerea
  Test B control value (gray mold on tomato): H (H shows more than 50% of control values)
Puccinia recondita
  Test E control value (brown rust on wheat): H (H shows more than 50% of control values)
Plasmopara viticola
  Test G control value (downy mildew on vine): L (L shows 50% or less of control values)

## Cn1c(-c2c(F)cccc2F)c(-c2ccc(Cl)cc2)cc(Br)c1=O [Compound 286]
Alternaia brassicicola
  Test C control value (Alternaria sooty spot on cabbage): H (H shows more than 50% of control values)
[1]
  Test D control value (powdery mildew on barley): L (L shows 50% or less of control values)
Botrytis cinerea
  Test B control value (gray mold on tomato): H (H shows more than 50% of control values)
Puccinia recondita
  Test E control value (brown rust on wheat): H (H shows more than 50% of control values)
Plasmopara viticola
  Test G control value (downy mildew on vine): H (H shows more than 50% of control values)

## CCn1c(-c2c(F)cccc2F)c(-c2cc(OC3CCCC3)ccc2Cl)ccc1=O [Compound 287]
Alternaia brassicicola
  Test C control value (Alternaria sooty spot on cabbage): H (H shows more than 50% of control values)
[1]
  Test D control value (powdery mildew on barley): H (H shows more than 50% of control values)
Botrytis cinerea
  Test B control value (gray mold on tomato): H (H shows more than 50% of control values)
Puccinia recondita
  Test E control value (brown rust on wheat): L (L shows 50% or less of control values)
Plasmopara viticola
  Test G control value (downy mildew on vine): H (H shows more than 50% of control values)

## Cn1c(-c2c(F)cccc2F)c(-c2cc(OC3CCCC3)ccc2Cl)ccc1=O [Compound 288]
Alternaia brassicicola
  Test C control value (Alternaria sooty spot on cabbage): L (L shows 50% or less of control values)
[1]
  Test D control value (powdery mildew on barley): L (L shows 50% or less of control values)
Botrytis cinerea
  Test B control value (gray mold on tomato): H (H shows more than 50% of control values)
Puccinia recondita
  Test E control value (brown rust on wheat): L (L shows 50% or less of control values)
Plasmopara viticola
  Test G control value (downy mildew on vine): L (L shows 50% or less of control values)

## Cn1c(-c2c(F)cccc2F)c(-c2ccc(Br)cc2)ccc1=O [Compound 289]
Alternaia brassicicola
  Test C control value (Alternaria sooty spot on cabbage): H (H shows more than 50% of control values)
[1]
  Test D control value (powdery mildew on barley): H (H shows more than 50% of control values)
Botrytis cinerea
  Test B control value (gray mold on tomato): H (H shows more than 50% of control values)
Puccinia recondita
  Test E control value (brown rust on wheat): H (H shows more than 50% of control values)
Plasmopara viticola
  Test G control value (downy mildew on vine): L (L shows 50% or less of control values)

## Cn1c(-c2c(F)cccc2F)c(-c2ccc(Br)cc2)cc(Br)c1=O [Compound 290]
Alternaia brassicicola
  Test C control value (Alternaria sooty spot on cabbage): H (H shows more than 50% of control values)
[1]
  Test D control value (powdery mildew on barley): L (L shows 50% or less of control values)
Botrytis cinerea
  Test B control value (gray mold on tomato): H (H shows more than 50% of control values)
Puccinia recondita
  Test E control value (brown rust on wheat): H (H shows more than 50% of control values)
Plasmopara viticola
  Test G control value (downy mildew on vine): H (H shows more than 50% of control values)

## Cn1c(-c2c(F)cccc2F)c(-c2ccc(Br)cc2)cc(Cl)c1=O [Compound 291]
Alternaia brassicicola
  Test C control value (Alternaria sooty spot on cabbage): H (H shows more than 50% of control values)
[1]
  Test D control value (powdery mildew on barley): H (H shows more than 50% of control values)
Botrytis cinerea
  Test B control value (gray mold on tomato): H (H shows more than 50% of control values)
Puccinia recondita
  Test E control value (brown rust on wheat): H (H shows more than 50% of control values)
Plasmopara viticola
  Test G control value (downy mildew on vine): H (H shows more than 50% of control values)

## CCn1c(-c2c(F)cccc2F)c(-c2ccc(Br)cc2)ccc1=O [Compound 292]
Alternaia brassicicola
  Test C control value (Alternaria sooty spot on cabbage): H (H shows more than 50% of control values)
[1]
  Test D control value (powdery mildew on barley): H (H shows more than 50% of control values)
Botrytis cinerea
  Test B control value (gray mold on tomato): H (H shows more than 50% of control values)
Puccinia recondita
  Test E control value (brown rust on wheat): H (H shows more than 50% of control values)
Plasmopara viticola
  Test G control value (downy mildew on vine): L (L shows 50% or less of control values)

## CCn1c(-c2c(F)cccc2F)c(-c2ccc(Br)cc2)cc(Br)c1=O [Compound 293]
Alternaia brassicicola
  Test C control value (Alternaria sooty spot on cabbage): H (H shows more than 50% of control values)
[1]
  Test D control value (powdery mildew on barley): H (H shows more than 50% of control values)
Botrytis cinerea
  Test B control value (gray mold on tomato): H (H shows more than 50% of control values)
Puccinia recondita
  Test E control value (brown rust on wheat): H (H shows more than 50% of control values)
Plasmopara viticola
  Test G control value (downy mildew on vine): L (L shows 50% or less of control values)

From patent US10299477B2 (priority 2015, dated 2019)
